# This is one part of the list.
# B1: Onconase (Rana pipiens), P22069 (protein)
# chain: QDWLTFQKKHITNTRDVDCDNIMSTNLFHCKDKNTFIYSRPEPVKAICKGIIASKNVLTTSEFYLSDCNVTSRPCKYKLKKSTNKFCVTCENQAPVHFVGVGSC
# Assays:
# Assay in all cases: glycan array binding signal (z-score within array); higher = stronger binding
# Conditions in all cases: glycan notation: IUPAC condensed, linker removed
# Gal6S(b1-4)Glc = molecular target: Gal6S(b1-4)Glc
# How it was run: (§1)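 Columns mapping to the same glycan were averaged after glycan names were converted to IUPAC-condensed notation. The data come from 3228 arrays in the Consortium for Functional Glycomics database, limited to those with an available protein sequence. Binding is reported as a within-array Z-score averaged across arrays of one protein sequence and across linkers.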
# Gal6S(b1-4)Glc6S = molecular target: Gal6S(b1-4)Glc6S
# How it was run: as §1
# Gal6S(b1-4)GlcNAc = molecular target: Gal6S(b1-4)GlcNAc
# How it was run: as §1
# GalNAc(a1-3)Gal = molecular target: GalNAc(a1-3)Gal
# How it was run: as §1
# GalNAc(a1-3)GalNAc = molecular target: GalNAc(a1-3)GalNAc
# How it was run: as §1
# [1] = molecular target: GalNAc(b1-3)Gal(a1-4)Gal(b1-4)GlcNAc
# How it was run: as §1
# GalNAc(b1-4)GlcNAc = molecular target: GalNAc(b1-4)GlcNAc
# How it was run: as §1
# Glc(a1-4)Glc = molecular target: Glc(a1-4)Glc
# How it was run: as §1
# Glc(a1-6)Glc(a1-6)Glc = molecular target: Glc(a1-6)Glc(a1-6)Glc
# How it was run: as §1
# Glc(b1-4)Glc = molecular target: Glc(b1-4)Glc
# How it was run: as §1
# Glc(b1-6)Glc = molecular target: Glc(b1-6)Glc
# How it was run: as §1
# GlcA(b1-3)Gal = molecular target: GlcA(b1-3)Gal
# How it was run: as §1
# GlcA(b1-6)Gal = molecular target: GlcA(b1-6)Gal
# How it was run: as §1
# [2] = molecular target: GlcNAc(a1-3)Gal(b1-4)GlcNAc
# How it was run: as §1
# [3] = molecular target: GlcNAc(a1-6)Gal(b1-4)GlcNAc
# How it was run: as §1
# [4] = molecular target: GlcNAc(b1-2)Gal(b1-3)GlcNAc
# How it was run: as §1
# [5] = molecular target: GlcNAc(b1-2)Man(a1-3)[GlcNAc(b1-2)Man(a1-6)]Man(b1-4)GlcNAc(b1-4)GlcNAc
# How it was run: as §1
# GlcNAc(b1-3)Gal = molecular target: GlcNAc(b1-3)Gal
# How it was run: as §1
# [6] = molecular target: GlcNAc(b1-3)Gal(b1-3)GalNAc
# How it was run: as §1
# GlcNAc(b1-3)Gal(b1-4)Glc = molecular target: GlcNAc(b1-3)Gal(b1-4)Glc
# How it was run: as §1
# [7] = molecular target: GlcNAc(b1-3)Gal(b1-4)GlcNAc
# How it was run: as §1
# [8] = molecular target: GlcNAc(b1-3)Gal(b1-4)GlcNAc(b1-3)Gal(b1-4)GlcNAc
# How it was run: as §1
# GlcNAc(b1-3)GalNAc = molecular target: GlcNAc(b1-3)GalNAc
# How it was run: as §1
# [9] = molecular target: GlcNAc(b1-3)[GlcNAc(b1-4)][GlcNAc(b1-6)]GlcNAc
# How it was run: as §1
# [10] = molecular target: GlcNAc(b1-3)[GlcNAc(b1-6)]Gal(b1-4)GlcNAc
# How it was run: as §1
# [11] = molecular target: GlcNAc(b1-3)[GlcNAc(b1-6)]GlcNAc
# How it was run: as §1
# [12] = molecular target: GlcNAc(b1-4)Gal(b1-4)GlcNAc
# How it was run: as §1
# [13] = molecular target: GlcNAc(b1-4)GlcNAc(b1-4)GlcNAc
# How it was run: as §1
# [14] = molecular target: GlcNAc(b1-4)GlcNAc(b1-4)GlcNAc(b1-4)GlcNAc(b1-4)GlcNAc
# How it was run: as §1
# [15] = molecular target: GlcNAc(b1-4)GlcNAc(b1-4)GlcNAc(b1-4)GlcNAc(b1-4)GlcNAc(b1-4)GlcNAc
# How it was run: as §1
# [16] = molecular target: GlcNAc(b1-4)[GlcNAc(b1-6)]GalNAc
# How it was run: as §1
# [17] = molecular target: GlcNAc(b1-6)Gal(b1-4)GlcNAc
# How it was run: as §1
# GlcNAc(b1-6)GalNAc = molecular target: GlcNAc(b1-6)GalNAc
# How it was run: as §1
# Kdn(a2-3)Gal(b1-3)GlcNAc = molecular target: Kdn(a2-3)Gal(b1-3)GlcNAc
# How it was run: as §1
# Kdn(a2-3)Gal(b1-4)GlcNAc = molecular target: Kdn(a2-3)Gal(b1-4)GlcNAc
# How it was run: as §1
# [18] = molecular target: Man(a1-2)Man(a1-2)Man(a1-3)Man
# How it was run: as §1
# [19] = molecular target: Man(a1-2)Man(a1-2)Man(a1-3)[Man(a1-2)Man(a1-3)[Man(a1-2)Man(a1-6)]Man(a1-6)]Man(b1-4)GlcNAc(b1-4)GlcNAc
# How it was run: as §1
# [20] = molecular target: Man(a1-2)Man(a1-2)Man(a1-3)[Man(a1-2)Man(a1-6)[Man(a1-3)]Man(a1-6)]Man(b1-4)GlcNAc(b1-4)GlcNAc
# How it was run: as §1
# [21] = molecular target: Man(a1-2)Man(a1-2)Man(a1-6)[Man(a1-3)]Man
# How it was run: as §1
# Man(a1-2)Man(a1-3)Man = molecular target: Man(a1-2)Man(a1-3)Man
# How it was run: as §1
# [22] = molecular target: Man(a1-2)Man(a1-3)[Man(a1-2)Man(a1-6)]Man
# How it was run: as §1
# [23] = molecular target: Man(a1-2)Man(a1-3)[Man(a1-3)[Man(a1-6)]Man(a1-6)]Man(b1-4)GlcNAc(b1-4)GlcNAc
# How it was run: as §1
# [24] = molecular target: Man(a1-2)Man(a1-3)[Man(a1-6)]Man(a1-6)[Man(a1-2)Man(a1-3)]Man(b1-4)GlcNAc(b1-4)GlcNAc
# How it was run: as §1
# Man(a1-3)[Man(a1-6)]Man = molecular target: Man(a1-3)[Man(a1-6)]Man
# How it was run: as §1
# [25] = molecular target: Man(a1-3)[Man(a1-6)]Man(a1-6)[Man(a1-3)]Man(b1-4)GlcNAc(b1-4)GlcNAc
# How it was run: as §1
# [26] = molecular target: Man(a1-3)[Man(a1-6)]Man(b1-4)GlcNAc(b1-4)GlcNAc
# How it was run: as §1
# Man(b1-4)GlcNAc = molecular target: Man(b1-4)GlcNAc
# How it was run: as §1
# Neu5Ac(a2-3)Gal = molecular target: Neu5Ac(a2-3)Gal
# How it was run: as §1
# [27] = molecular target: Neu5Ac(a2-3)Gal(b1-3)GalNAc
# How it was run: as §1
binder,measurement,setting,value
B1,glycan array binding signal (z-score),Gal6S(b1-4)Glc,0.123
same,glycan array binding signal (z-score),Gal6S(b1-4)Glc6S,0.598
same,glycan array binding signal (z-score),Gal6S(b1-4)GlcNAc,0.046
same,glycan array binding signal (z-score),GalNAc(a1-3)Gal,-0.222
same,glycan array binding signal (z-score),GalNAc(a1-3)GalNAc,-0.168
same,glycan array binding signal (z-score),[1],0.352
same,glycan array binding signal (z-score),GalNAc(b1-4)GlcNAc,-0.519
same,glycan array binding signal (z-score),Glc(a1-4)Glc,-0.79
same,glycan array binding signal (z-score),Glc(a1-6)Glc(a1-6)Glc,0.282
same,glycan array binding signal (z-score),Glc(b1-4)Glc,-2.4
same,glycan array binding signal (z-score),Glc(b1-6)Glc,0.027
same,glycan array binding signal (z-score),GlcA(b1-3)Gal,0.506
same,glycan array binding signal (z-score),GlcA(b1-6)Gal,-0.471
same,glycan array binding signal (z-score),[2],0.194
same,glycan array binding signal (z-score),[3],0.987
same,glycan array binding signal (z-score),[4],-0.449
same,glycan array binding signal (z-score),[5],0.914
same,glycan array binding signal (z-score),GlcNAc(b1-3)Gal,1.22
same,glycan array binding signal (z-score),[6],0.289
same,glycan array binding signal (z-score),GlcNAc(b1-3)Gal(b1-4)Glc,-0.129
same,glycan array binding signal (z-score),[7],-1.06
same,glycan array binding signal (z-score),[8],-0.72
same,glycan array binding signal (z-score),GlcNAc(b1-3)GalNAc,-0.84
same,glycan array binding signal (z-score),[9],0.372
same,glycan array binding signal (z-score),[10],-0.071
same,glycan array binding signal (z-score),[11],0.132
same,glycan array binding signal (z-score),[12],-0.317
same,glycan array binding signal (z-score),[13],-0.556
same,glycan array binding signal (z-score),[14],-1.57
same,glycan array binding signal (z-score),[15],0.007
same,glycan array binding signal (z-score),[16],-0.041
same,glycan array binding signal (z-score),[17],-0.698
same,glycan array binding signal (z-score),GlcNAc(b1-6)GalNAc,-1.13
same,glycan array binding signal (z-score),Kdn(a2-3)Gal(b1-3)GlcNAc,-0.468
same,glycan array binding signal (z-score),Kdn(a2-3)Gal(b1-4)GlcNAc,-0.198
same,glycan array binding signal (z-score),[18],-0.008
same,glycan array binding signal (z-score),[19],0.632
same,glycan array binding signal (z-score),[20],0.799
same,glycan array binding signal (z-score),[21],0.941
same,glycan array binding signal (z-score),Man(a1-2)Man(a1-3)Man,-0.711
same,glycan array binding signal (z-score),[22],0.189
same,glycan array binding signal (z-score),[23],-0.116
same,glycan array binding signal (z-score),[24],-0.659
same,glycan array binding signal (z-score),Man(a1-3)[Man(a1-6)]Man,-0.675
same,glycan array binding signal (z-score),[25],0.361
same,glycan array binding signal (z-score),[26],-0.04
same,glycan array binding signal (z-score),Man(b1-4)GlcNAc,0.119
same,glycan array binding signal (z-score),Neu5Ac(a2-3)Gal,-0.637
same,glycan array binding signal (z-score),[27],0.515

# Source: the supplement of paper PMC8728848
